Values marked as one replicate rest on one cluster of the flow cell; about a third of the high ones do not repeat.
Tested on: ATP
Test: switch fluorescence ratio, 500 uM ATP over buffer (Cy3 cluster intensity, sum of 5 cycles each) (fold (ratio)); higher = stronger signal-on switching upon ATP binding; sequences stand for … in TCGTCGGCAGCGTCAGATGTGTATAAGAGACAGTTTTTTTTTTTTTTTTTTTTTTTTT…TC
Settings: aptamer strand: ATP DNA aptamer (quencher-CACCTGGGGGAGTATTGCGGAGGAAGG + anchor), 100 nM annealed; ATP concentration: 500 uM; one replicate
In short: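 Between each of five buffer/ATP cycles, the flow-cell was stripped with NaOH and re-annealed. Each cycle imaged Cy3-labelled switching-strand clusters, annealed to 100 nM quencher-labelled ATP aptamer on a modified Illumina MiSeq flow-cell, first in selection buffer and then after 15 min with 500 uM ATP at 22 °C. The fluorescence ratio is summed target-cycle over summed buffer-cycle Cy3 intensity per cluster, averaged per switch-domain sequence, with clusters outside 100-1000 RFU excluded.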
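Note: ATP exposure 15 min at 22 °C before imaging.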

Sequence: TTGCTGGTTA
- switch fluorescence ratio: 1.01

Sequence: GTAGCGCATT
- switch fluorescence ratio: 1.08

Sequence: TTATGTCTCA
- switch fluorescence ratio: 1.02

Sequence: GCGGTAAATT
- switch fluorescence ratio: 1.05

Sequence: AAGGTAACGT
- switch fluorescence ratio: 0.999

Sequence: TATAGGGCAG
- switch fluorescence ratio: 1.01

Sequence: AAAAGGCCCT
- switch fluorescence ratio: 1.13

Sequence: GCTCGAGATA
- switch fluorescence ratio: 1.08

Sequence: AGCCACAAGG
- switch fluorescence ratio: 1.07

Sequence: TTTACGATAT
- switch fluorescence ratio: 1.17

Sequence: AATTCGTTAG
- switch fluorescence ratio: 0.96

Sequence: GAGCGGCTAT
- switch fluorescence ratio: 1.01

Sequence: CTTGGTGTAG
- switch fluorescence ratio: 1.01

Sequence: AAGTTCGAAG
- switch fluorescence ratio: 0.943

Sequence: TGTTCGAAGG
- switch fluorescence ratio: 1.03

Sequence: ACATTAAATG
- switch fluorescence ratio: 0.974

Sequence: ACGCATTCTG
- switch fluorescence ratio: 1.14

Sequence: TAGATAAACA
- switch fluorescence ratio: 1.01

Sequence: GCCACTGTCA
- switch fluorescence ratio: 1.05

Sequence: ACATCATC
- switch fluorescence ratio: 1.04

Sequence: AATAGGCTAT
- switch fluorescence ratio: 1

Sequence: GTAAAGGCTA
- switch fluorescence ratio: 0.999

Sequence: GCAGATGCGC
- switch fluorescence ratio: 1.02

Sequence: CGTTCGTTAG
- switch fluorescence ratio: 1.02

Sequence: CAGTCTGGAT
- switch fluorescence ratio: 0.989

Sequence: CCTTGTATCA
- switch fluorescence ratio: 0.962

Sequence: ACCATGGGGG
- switch fluorescence ratio: 1.03

Sequence: GCCATTCGCT
- switch fluorescence ratio: 0.957

Sequence: CCTCCCTTGA
- switch fluorescence ratio: 3.5

Sequence: CCTCGTGCAT
- switch fluorescence ratio: 4.34

Sequence: GTCTCTTGGA
- switch fluorescence ratio: 0.951

Sequence: TGCGACCGGC
- switch fluorescence ratio: 1.01

Sequence: TGCCCGCGCT
- switch fluorescence ratio: 0.971

Sequence: AGCAGGATTT
- switch fluorescence ratio: 0.987

Sequence: CGCGTTTTGT
- switch fluorescence ratio: 0.991

Sequence: TGATCCCCGA
- switch fluorescence ratio: 1.01

Sequence: ATGTAGTATT
- switch fluorescence ratio: 0.961

Sequence: ATTACCGGTT
- switch fluorescence ratio: 0.947

Sequence: TAACGAGCTT
- switch fluorescence ratio: 1.04

Sequence: GAAACGGTAG
- switch fluorescence ratio: 0.978

Sequence: ATCCTTAGTC
- switch fluorescence ratio: 0.987

Sequence: TAGCAGGCTT
- switch fluorescence ratio: 0.999

Sequence: CAGTTATTCC
- switch fluorescence ratio: 1.08

Sequence: GTTGGACATA
- switch fluorescence ratio: 1.02

Sequence: AATATGTTGA
- switch fluorescence ratio: 0.996

Sequence: CTACTCCCGG
- switch fluorescence ratio: 1.53

Sequence: GGAGAGGATG
- switch fluorescence ratio: 1.01

Sequence: ATTACGGTTG
- switch fluorescence ratio: 1.05

Sequence: ATGATACAGA
- switch fluorescence ratio: 1.08

Sequence: CGGAAGGATT
- switch fluorescence ratio: 0.996

Sequence: CAACGGAGTA
- switch fluorescence ratio: 1.05

Sequence: AGTAAGACGA
- switch fluorescence ratio: 1.08

Sequence: AGGACTTAGC
- switch fluorescence ratio: 1.01

Sequence: ATTTTTCCTG
- switch fluorescence ratio: 1.03

Sequence: GCAAACGTTG
- switch fluorescence ratio: 1.02

Sequence: GCGAGGTAGC
- switch fluorescence ratio: 0.97

Sequence: TTCTCTTTC
- switch fluorescence ratio: 1

Sequence: CGACTTAACG
- switch fluorescence ratio: 0.973

Sequence: TTGCCGCTGA
- switch fluorescence ratio: 1.06

Sequence: TTCTGAAGTG
- switch fluorescence ratio: 0.978

Sequence: CCTCTTACTG
- switch fluorescence ratio: 1.1

Sequence: TGATCTCCG
- switch fluorescence ratio: 1.2

Sequence: CACGACACTT
- switch fluorescence ratio: 1.44

Sequence: TTGCTAGGCC
- switch fluorescence ratio: 0.979

Sequence: CAAATAGACT
- switch fluorescence ratio: 0.979

Sequence: GGCTAGCTAT
- switch fluorescence ratio: 1.03

Sequence: GGTTTGTGCG
- switch fluorescence ratio: 0.999

Sequence: GCAGTCAGGA
- switch fluorescence ratio: 0.941

Sequence: AAGTGCCAG
- switch fluorescence ratio: 1

Sequence: GAGAGCTTTT
- switch fluorescence ratio: 0.994

Sequence: TTTCATTCG
- switch fluorescence ratio: 1.07

Sequence: AAACGATTGG
- switch fluorescence ratio: 0.992

Sequence: ATGTTTCAT
- switch fluorescence ratio: 0.951

Sequence: GCTAGTCGTG
- switch fluorescence ratio: 0.941

Sequence: CCACTATCGA
- switch fluorescence ratio: 1.08

Sequence: TTCCTACACT
- switch fluorescence ratio: 1.21

Sequence: CATTCGCAGA
- switch fluorescence ratio: 3.15

Sequence: CGAAACTGGG
- switch fluorescence ratio: 0.972

Sequence: CCTAGGCTGG
- switch fluorescence ratio: 1.1

Sequence: CCGTTCCACA
- switch fluorescence ratio: 1.11

Sequence: GTAATGTGAG
- switch fluorescence ratio: 0.99

Sequence: GAGCCCGTTG
- switch fluorescence ratio: 0.941

Sequence: AGTCAAAGA
- switch fluorescence ratio: 0.987

Sequence: GGGACGTCAC
- switch fluorescence ratio: 1.17

Sequence: TAACCATGAG
- switch fluorescence ratio: 0.978

Sequence: GGCTGCGTCG
- switch fluorescence ratio: 1.02

Sequence: AGGATTACAT
- switch fluorescence ratio: 1.02

Sequence: ACTGTTGGA
- switch fluorescence ratio: 0.95

Sequence: AACGAACACG
- switch fluorescence ratio: 1.16

Sequence: GTGTTTGTAG
- switch fluorescence ratio: 1

Sequence: ATCAGCATTC
- switch fluorescence ratio: 2.93

Sequence: ATATAATCGA
- switch fluorescence ratio: 0.976

Sequence: TCCTCGGAGG
- switch fluorescence ratio: 1.01

Sequence: TCGAGCGAAA
- switch fluorescence ratio: 1.04

Sequence: AATACATAGA
- switch fluorescence ratio: 0.966

Sequence: GATCAAGATC
- switch fluorescence ratio: 1

Sequence: TGTAGATAAT
- switch fluorescence ratio: 1

Sequence: ATGTGAGTCT
- switch fluorescence ratio: 1.04

Sequence: CCGCCGAGAA
- switch fluorescence ratio: 2.51

Sequence: CATTCCCCAT
- switch fluorescence ratio: 1.06

Sequence: TGAGAGGCTA
- switch fluorescence ratio: 0.97

Sequence: ATTAGGTGCT
- switch fluorescence ratio: 1.12

Sequence: ACTTATGCCG
- switch fluorescence ratio: 1.02

Sequence: GCTAATGCAC
- switch fluorescence ratio: 1.02

Sequence: AGCGGCCACT
- switch fluorescence ratio: 1.01

Sequence: GACTGCTACA
- switch fluorescence ratio: 1.37

Sequence: ATGGTGGTCA
- switch fluorescence ratio: 1.02

Sequence: TCAACAAATT
- switch fluorescence ratio: 1.3

Sequence: ACCACATAAT
- switch fluorescence ratio: 1.08

Sequence: TAGGTTTTAC
- switch fluorescence ratio: 0.982

Sequence: CGGAGGCGTG
- switch fluorescence ratio: 0.937

Sequence: CAGTCGGGAC
- switch fluorescence ratio: 0.993

Sequence: GCCACTGTCT
- switch fluorescence ratio: 0.948

Sequence: GTGAGACTT
- switch fluorescence ratio: 1.02

Sequence: ATGCATTACG
- switch fluorescence ratio: 1.1

Sequence: TTTGCAGATA
- switch fluorescence ratio: 1

Sequence: CACACTGAAT
- switch fluorescence ratio: 1

Sequence: AGAATCCTAT
- switch fluorescence ratio: 1

Sequence: TCAGCTGGCG
- switch fluorescence ratio: 0.959

Sequence: ATCCTATTCA
- switch fluorescence ratio: 1

Sequence: ATGATTATTC
- switch fluorescence ratio: 0.961

Sequence: AGCTCGACAA
- switch fluorescence ratio: 1.08

Sequence: TTACGGAATG
- switch fluorescence ratio: 1.05

Sequence: GAGAGGGCTA
- switch fluorescence ratio: 0.951

Sequence: CCGGGTATAC
- switch fluorescence ratio: 2.98

Sequence: GTCTATTCGG
- switch fluorescence ratio: 1.03

Sequence: CTGGTAAGCT
- switch fluorescence ratio: 1.05

Sequence: GCTATTGGAG
- switch fluorescence ratio: 0.94

Sequence: GGTCGCCGGT
- switch fluorescence ratio: 1.04

Sequence: GGGATAAATG
- switch fluorescence ratio: 0.979

Sequence: CACCTTGGGT
- switch fluorescence ratio: 1.03

Sequence: GATGCTGTGA
- switch fluorescence ratio: 0.973

Sequence: GCGGCGGCGA
- switch fluorescence ratio: 1

Sequence: GTGGTGCTCC
- switch fluorescence ratio: 1.05

Sequence: TCTGCGCCGA
- switch fluorescence ratio: 1.07

Sequence: GACCACCAAC
- switch fluorescence ratio: 1.23

Sequence: CGCGATACCG
- switch fluorescence ratio: 1.72

Sequence: ATAAGTATCT
- switch fluorescence ratio: 0.987

Sequence: CGGTCTACTT
- switch fluorescence ratio: 1.01

Sequence: ATTAGGGTGC
- switch fluorescence ratio: 1.05

Sequence: CCCATGGTTC
- switch fluorescence ratio: 1.02

Sequence: TCGAGTCATA
- switch fluorescence ratio: 1.03

Sequence: TCATTTACT
- switch fluorescence ratio: 1.33

Sequence: AAGAGGCTGT
- switch fluorescence ratio: 1.01

Sequence: CTCATGGAGG
- switch fluorescence ratio: 0.986

Sequence: CCCGGTATTA
- switch fluorescence ratio: 1.02

Sequence: ACGCGAACAT
- switch fluorescence ratio: 1.02

Sequence: CAATTTAAAG
- switch fluorescence ratio: 0.959

Sequence: ATGGTTTGCT
- switch fluorescence ratio: 0.996

Sequence: AGTGGTAGAG
- switch fluorescence ratio: 0.968

Sequence: GAGGACTGTT
- switch fluorescence ratio: 1.14

Sequence: AAAGGTCGGC
- switch fluorescence ratio: 1.04

Sequence: CTTAAAGAAA
- switch fluorescence ratio: 0.954

Sequence: ACGGTACATT
- switch fluorescence ratio: 1.34

Sequence: ATTTAGCCAC
- switch fluorescence ratio: 1.06

Sequence: GTCTTCAAGT
- switch fluorescence ratio: 1.08

Sequence: TCTACCTTAG
- switch fluorescence ratio: 1
